Measured values as given in publication PMC3197607.
Results are given in words; binding and its absence hold for the method and conditions named. For some of these results: Binding seen in cells or lysates may run through a third protein. Some results given as binding are weak or reduced against the parent protein; the word gives no strength. Each block holds one substance with its values, some of them ahead of it.

Chains of the proteins cited; added tags and fusions are not shown.
UniProt Q13547: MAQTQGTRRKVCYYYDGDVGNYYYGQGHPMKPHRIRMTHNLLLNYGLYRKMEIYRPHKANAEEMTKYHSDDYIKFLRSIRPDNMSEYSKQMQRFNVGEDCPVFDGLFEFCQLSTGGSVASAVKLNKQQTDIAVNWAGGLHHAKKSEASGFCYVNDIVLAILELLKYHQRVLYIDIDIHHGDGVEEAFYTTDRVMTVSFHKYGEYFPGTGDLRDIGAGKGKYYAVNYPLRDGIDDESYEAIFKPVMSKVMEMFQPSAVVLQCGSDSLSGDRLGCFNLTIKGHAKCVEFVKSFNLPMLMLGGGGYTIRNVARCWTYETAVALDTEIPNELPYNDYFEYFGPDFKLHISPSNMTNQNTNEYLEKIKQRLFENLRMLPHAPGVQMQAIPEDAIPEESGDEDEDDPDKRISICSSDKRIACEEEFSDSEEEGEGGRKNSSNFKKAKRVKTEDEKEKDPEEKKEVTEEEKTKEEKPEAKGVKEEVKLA

Columns and labels:
[1] = target: T1, human Sin3B (human (endogenous in KB, HEK293, HCT116, H1299)) (UniProt O75182); assay: co-IP; reciprocal IP in KB cell extract with mouse anti-Sin3B (sc-13145), detection by anti-p53 (sc-98), ImmunoCruz IP/WB Optima E System
T1 sequence: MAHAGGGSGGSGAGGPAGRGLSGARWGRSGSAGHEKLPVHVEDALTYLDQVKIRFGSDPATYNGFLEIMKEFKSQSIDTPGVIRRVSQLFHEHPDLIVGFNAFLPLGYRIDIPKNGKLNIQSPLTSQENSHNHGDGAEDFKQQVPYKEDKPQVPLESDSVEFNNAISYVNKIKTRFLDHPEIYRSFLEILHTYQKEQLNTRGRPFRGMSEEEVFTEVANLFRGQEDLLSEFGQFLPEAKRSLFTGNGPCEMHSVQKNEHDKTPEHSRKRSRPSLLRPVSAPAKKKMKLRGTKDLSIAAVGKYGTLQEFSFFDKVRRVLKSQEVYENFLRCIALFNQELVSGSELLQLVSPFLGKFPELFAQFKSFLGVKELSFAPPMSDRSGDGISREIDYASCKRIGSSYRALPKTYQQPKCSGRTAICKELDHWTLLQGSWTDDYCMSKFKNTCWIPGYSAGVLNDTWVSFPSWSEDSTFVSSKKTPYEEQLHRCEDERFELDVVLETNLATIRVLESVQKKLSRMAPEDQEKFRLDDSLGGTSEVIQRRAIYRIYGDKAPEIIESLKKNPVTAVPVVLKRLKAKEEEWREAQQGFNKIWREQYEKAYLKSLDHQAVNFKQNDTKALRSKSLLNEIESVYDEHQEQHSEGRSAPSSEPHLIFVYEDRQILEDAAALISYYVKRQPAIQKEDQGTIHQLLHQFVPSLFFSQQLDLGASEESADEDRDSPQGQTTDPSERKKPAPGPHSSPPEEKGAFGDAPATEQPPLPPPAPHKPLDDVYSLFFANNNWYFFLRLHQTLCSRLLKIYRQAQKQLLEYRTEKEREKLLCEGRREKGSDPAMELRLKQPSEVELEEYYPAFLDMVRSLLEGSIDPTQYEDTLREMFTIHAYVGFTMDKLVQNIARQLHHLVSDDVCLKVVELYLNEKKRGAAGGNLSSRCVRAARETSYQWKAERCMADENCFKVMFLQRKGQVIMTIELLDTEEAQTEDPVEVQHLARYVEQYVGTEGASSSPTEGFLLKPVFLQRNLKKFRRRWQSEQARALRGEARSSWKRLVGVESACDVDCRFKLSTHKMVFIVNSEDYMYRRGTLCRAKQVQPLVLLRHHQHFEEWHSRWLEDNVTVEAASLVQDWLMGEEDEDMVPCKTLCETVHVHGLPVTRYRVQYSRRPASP

[2] = target: T2, pGBKT7-Sin3B(1–399) (human) (UniProt O75182); assay: two-hybrid; Matchmaker Two Hybrid System 3, yeast AH109; Sin3B fragments on GAL4 DNA binding domain (bait, pGBKT7), p53 on GAL4 activation domain (prey, pGADT7); growth and blue colonies on SD QDO-Xgal
T2 sequence: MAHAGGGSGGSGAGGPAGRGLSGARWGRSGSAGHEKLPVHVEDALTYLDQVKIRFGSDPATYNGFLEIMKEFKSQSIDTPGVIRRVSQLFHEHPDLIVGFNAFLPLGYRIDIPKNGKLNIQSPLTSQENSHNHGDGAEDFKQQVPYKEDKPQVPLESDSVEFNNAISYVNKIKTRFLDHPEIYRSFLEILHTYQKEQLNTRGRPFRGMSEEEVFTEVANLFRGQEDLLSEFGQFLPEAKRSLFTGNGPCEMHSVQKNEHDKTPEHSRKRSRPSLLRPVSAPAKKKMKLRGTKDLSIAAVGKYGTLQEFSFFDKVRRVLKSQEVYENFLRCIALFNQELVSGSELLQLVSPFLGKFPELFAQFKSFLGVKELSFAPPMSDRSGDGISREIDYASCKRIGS

Sin3B(168–399) (human) = target: T3, Sin3B(168–399) (human) (UniProt O75182); assay: as above
T3 sequence: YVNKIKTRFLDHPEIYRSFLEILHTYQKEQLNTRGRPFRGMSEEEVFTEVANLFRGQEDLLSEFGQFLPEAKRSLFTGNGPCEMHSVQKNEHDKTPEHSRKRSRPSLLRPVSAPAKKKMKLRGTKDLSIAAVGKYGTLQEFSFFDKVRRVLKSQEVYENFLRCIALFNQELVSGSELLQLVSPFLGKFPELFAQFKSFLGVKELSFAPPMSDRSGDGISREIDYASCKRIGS

Sin3B(1–179) (human) = target: T4, Sin3B(1–179) (human) (UniProt O75182); assay: as above
T4 sequence: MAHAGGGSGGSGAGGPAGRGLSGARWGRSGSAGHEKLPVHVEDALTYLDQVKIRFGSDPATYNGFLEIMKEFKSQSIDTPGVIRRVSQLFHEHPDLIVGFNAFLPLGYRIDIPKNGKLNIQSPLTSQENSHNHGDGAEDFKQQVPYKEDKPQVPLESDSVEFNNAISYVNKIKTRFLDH

Sin3B(1–247) (human) = target: T5, Sin3B(1–247) (human) (UniProt O75182); assay: as above
T5 sequence: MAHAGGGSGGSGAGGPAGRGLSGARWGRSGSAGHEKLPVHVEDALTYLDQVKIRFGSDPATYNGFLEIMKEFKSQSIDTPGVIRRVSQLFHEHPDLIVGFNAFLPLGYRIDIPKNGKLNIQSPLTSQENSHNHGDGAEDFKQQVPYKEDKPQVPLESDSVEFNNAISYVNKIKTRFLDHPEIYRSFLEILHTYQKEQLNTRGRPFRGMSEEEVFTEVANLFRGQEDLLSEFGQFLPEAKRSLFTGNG

[3] = target: T6, pGBKT7-Sin3B(442–1162) (human) (UniProt O75182); assay: as above
T6 sequence: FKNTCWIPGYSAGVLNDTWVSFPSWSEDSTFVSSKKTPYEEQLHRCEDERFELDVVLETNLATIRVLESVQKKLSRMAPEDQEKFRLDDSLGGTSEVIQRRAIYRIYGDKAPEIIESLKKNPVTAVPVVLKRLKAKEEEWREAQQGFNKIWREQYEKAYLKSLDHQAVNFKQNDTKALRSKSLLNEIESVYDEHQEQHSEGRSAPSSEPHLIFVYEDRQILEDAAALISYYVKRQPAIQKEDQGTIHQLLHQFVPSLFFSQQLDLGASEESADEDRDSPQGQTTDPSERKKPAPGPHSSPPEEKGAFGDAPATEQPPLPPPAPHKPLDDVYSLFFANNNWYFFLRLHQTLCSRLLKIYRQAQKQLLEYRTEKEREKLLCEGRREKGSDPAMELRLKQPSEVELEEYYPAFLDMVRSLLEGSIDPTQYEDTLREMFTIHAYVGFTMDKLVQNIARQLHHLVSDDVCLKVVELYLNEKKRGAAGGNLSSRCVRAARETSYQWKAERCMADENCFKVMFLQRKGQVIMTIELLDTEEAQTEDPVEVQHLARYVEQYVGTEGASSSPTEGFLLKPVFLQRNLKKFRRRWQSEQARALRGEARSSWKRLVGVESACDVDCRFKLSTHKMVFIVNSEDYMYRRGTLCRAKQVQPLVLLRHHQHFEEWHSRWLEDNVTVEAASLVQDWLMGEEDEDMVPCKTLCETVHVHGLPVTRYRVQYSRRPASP

[4] = target: T1, human Sin3B (human (endogenous in KB, HEK293, HCT116, H1299)); assay: co-IP; endogenous proteins in NP-40 buffer lysates (20 mM Tris-HCl pH 7.4, 100 mM NaCl, 0.5 mM EDTA, 0.5% NP-40) of human cell lines (KB, HEK293, HCT116, H1299); 2 mg total protein with 1 µg antibody (anti-p53, anti-HDAC1 or anti-Sin3B), immunoblot of the partner; KB cells also after 1.0 µg/ml Adriamycin

- binding [1]: binds
Substance: human p53 (from UniProt P04637 1-393)

- binding [2]: binds
Substance: pGADT7-hp53(1–108) (from UniProt P04637 1-108) (domain or fragment)

- binding (Sin3B(168–399) (human)): binds
- binding (Sin3B(1–179) (human)): no binding
- binding (Sin3B(1–247) (human)): no binding
- binding [3]: no binding
Substance: pGADT7-hp53 (full length human p53 fused with GAL4 activation domain) (from UniProt P04637 1-393)

- binding [4]: binds
Substance: HDAC1 (from UniProt Q13547 1-482)
